One test deals with HSkMC. In words: cytotoxicity call (relative viability < 0.9). The conditions noted are these: 10 µM.
In a further test the test system is HepG2. In words: cytotoxicity call (relative viability < 0.9). The conditions noted are these: 10 µM.
A further test concerns S. aureus RN4220. In words: growth inhibition call (relative growth <= 0.2). The conditions noted are these: 50 µM.

The list shows a part of the results.

As for `C[C@H]1CN([C@@H](C)CO)C(=O)c2cccc(NS(=O)(=O)c3ccccc3)c2O[C@H]1CN(C)S(=O)(=O)c1ccccc1`, the cytotoxicity call in the test with HSkMC and in the test with HepG2 was “inactive” throughout. In addition, the growth inhibition call in the test with S. aureus RN4220 is “inactive”.
For the compound `C[C@H](CO)N1C[C@H](C)[C@H](CN(C)C(=O)Nc2cccc3ccccc23)Oc2ccc(NC(=O)Nc3cccc4ccccc34)cc2C1=O`, the cytotoxicity call with HSkMC is “inactive”. Moreover, the cytotoxicity call in the test on HepG2 was “active”. Besides, the growth inhibition call with S. aureus RN4220 is “inactive”.
For the compound `COc1ccc(cc1)CN1CC[C@]2(CC1)CN([C@@H](CO)c1[nH]c3cc(ccc3c12)OC)C(=O)Nc1ccc(cc1)F`, the cytotoxicity call in the test on HSkMC was “inactive”. Further, in the test with HepG2, the cytotoxicity call was “active”. In addition, the growth inhibition call in the test on S. aureus RN4220 is “inactive”.
As for `c1cn(CCN2CCNCC2)cn1`, the cytotoxicity call with HSkMC and in the test on HepG2 was “inactive” in each case. For the same compound, the growth inhibition call in the test on S. aureus RN4220 was “inactive”.
Regarding `CN1C(=O)[C@H]2CN(C)c3ccccc3[C@H]2C1=O`, the cytotoxicity call with HSkMC and with HepG2 was “inactive” throughout. Besides, the growth inhibition call with S. aureus RN4220 was “inactive”.
On to `C[C@@H]1CCCCO[C@@H](CN(C)C(=O)c2ccccc2)[C@@H](C)CN([C@@H](C)CO)C(=O)c2cc(NC(=O)CCC(F)(F)F)ccc2O1`, for which the cytotoxicity call in the test with HSkMC and with HepG2 was “inactive” in each case. Further, in the test with S. aureus RN4220, the growth inhibition call is “inactive”.
As to `NCc1cccc(-n2cccn2)c1`, the cytotoxicity call in the test on HSkMC and in the test with HepG2 was “inactive” each time. The growth inhibition call in the test with S. aureus RN4220 is “inactive”.
With `Cc1noc(C)c1S(=O)(=O)N(C)C[C@H]1Oc2ccc(NS(=O)(=O)c3cn(C)cn3)cc2C(=O)N([C@@H](C)CO)C[C@H]1C`, the cytotoxicity call in the test on HSkMC and in the test with HepG2 was “inactive” in each case. Also, the growth inhibition call in the test on S. aureus RN4220 is “inactive”.
With `C/C=C/c1ccc2c(c1)O[C@@H](CN(C)C(=O)c1ccc3c(c1)OCO3)[C@H](C)CN([C@H](C)CO)S2(=O)=O`, the cytotoxicity call in the test on HSkMC and with HepG2 was “inactive” in each case. The growth inhibition call in the test with S. aureus RN4220 was “inactive”.
With `C[C@@H]1CN([C@H](C)CO)C(=O)c2cc(NC(=O)Cn3cnnn3)ccc2O[C@@H]1CN(C)S(=O)(=O)c1ccc(F)cc1`, the cytotoxicity call in the test with HSkMC and in the test on HepG2 was “inactive” throughout. For the same compound, the growth inhibition call with S. aureus RN4220 was “inactive”.
Regarding `Cc1ccc(S(=O)(=O)N(C)C[C@H]2Oc3cc(C#Cc4ccncc4)ccc3S(=O)(=O)N([C@@H](C)CO)C[C@H]2C)cc1`, in the test on HSkMC, the cytotoxicity call was “inactive”. Besides, the cytotoxicity call in the test with HepG2 was “active”. Moreover, the growth inhibition call in the test on S. aureus RN4220 is “inactive”.
As for `C[C@@H]1CN([C@@H](C)CO)C(=O)Cc2cc(NC(=O)C3CC3)ccc2O[C@@H]1CN(C)Cc1ccc(C(=O)O)cc1`, the cytotoxicity call with HSkMC and in the test with HepG2 was “inactive” throughout. In addition, in the test with S. aureus RN4220, the growth inhibition call is “inactive”.
Take `C[C@H](CO)N1C[C@H](C)[C@@H](CN(C)Cc2ccccc2)Oc2ccc(NC(=O)CCCCCC(=O)Nc3ccccc3N)cc2C1=O`: the cytotoxicity call with HSkMC and in the test on HepG2 was “inactive” throughout. Further, the growth inhibition call in the test on S. aureus RN4220 is “inactive”.
For `Cn1cnc(S(=O)(=O)N2CC[C@H]3NC(=O)C[C@H]32)c1`, the cytotoxicity call with HSkMC and in the test with HepG2 was “inactive” in each case. Further, in the test with S. aureus RN4220, the growth inhibition call was “inactive”.
As to `Cc1noc(C)c1S(=O)(=O)N(C)C[C@@H]1Oc2ccc(NS(=O)(=O)c3ccccc3)cc2C(=O)N([C@H](C)CO)C[C@@H]1C`, the cytotoxicity call with HSkMC and with HepG2 was “inactive” throughout. In the test on S. aureus RN4220, the growth inhibition call was “inactive”.
On to `C[C@@H]1CN([C@@H](C)CO)C(=O)c2cccc(NC(=O)Nc3ccc4c(c3)OCO4)c2O[C@@H]1CN(C)Cc1ccc(C(=O)Nc2ccccc2N)cc1`, for which the cytotoxicity call in the test on HSkMC and in the test with HepG2 was “inactive” each time. Also, the growth inhibition call with S. aureus RN4220 was “inactive”.
As to `CC(=O)OC1CCC2(C)C(CCC3(C)C2C2OC2C24OC(=O)C5(CCC(C)C(C)C52)CCC34C)C1(C)C` (stereo not drawn), the cytotoxicity call with HSkMC and with HepG2 was “inactive” in each case. The growth inhibition call in the test with S. aureus RN4220 was “inactive”.
For `CC(C)NC(=O)N(C)C[C@H]1Oc2c(NC(=O)Cn3cnnn3)cccc2C(=O)N([C@H](C)CO)C[C@@H]1C`, the cytotoxicity call with HSkMC and in the test on HepG2 was “inactive” in each case. For the same compound, in the test on S. aureus RN4220, the growth inhibition call is “inactive”.
Consider `C[C@H](CO)N1C[C@H](C)[C@H](CN(C)C(=O)NC2CCCCC2)Oc2ccc(NC(=O)CCCN(C)C)cc2C1=O`, for which the cytotoxicity call in the test on HSkMC and with HepG2 was “inactive” each time. In addition, the growth inhibition call with S. aureus RN4220 was “inactive”.
With `C[C@H](CO)N1C[C@H](C)[C@H](CN(C)C(=O)Nc2ccccc2)Oc2ccc(NC(=O)Cn3cnnn3)cc2C1=O`, the cytotoxicity call with HSkMC and in the test with HepG2 was “inactive” in each case. For the same compound, the growth inhibition call in the test with S. aureus RN4220 was “inactive”.
For `COc1ccc([C@@H]2CC=CC[C@H](C)Oc3ccccc3C(=O)N(C)[C@@H](Cc3ccccc3)C(=O)N2)c(OC)c1`, the cytotoxicity call in the test on HSkMC (human skeletal muscle cells) is “active”. The cytotoxicity call in the test with HepG2 is “inactive”. Besides, the growth inhibition call with S. aureus RN4220 is “inactive”.
On to `C[C@@H]1CN([C@H](C)CO)C(=O)c2cc(NS(C)(=O)=O)ccc2O[C@@H](C)CCCCO[C@@H]1CN(C)Cc1ccncc1`, for which the cytotoxicity call in the test with HSkMC and in the test with HepG2 was “inactive” throughout. In addition, in the test on S. aureus RN4220, the growth inhibition call is “inactive”.
In the case of `C=CCN1C(=O)[C@@]2(O[C@@H](CCn3cc([C@H](O)c4ccccc4)nn3)[C@H]([Si](C)(C)c3ccc(OC)cc3)[C@H]2C)c2cc(N3CCOC3=O)ccc21`, the cytotoxicity call in the test with HSkMC and in the test with HepG2 was “inactive” throughout. The growth inhibition call in the test with S. aureus RN4220 is “inactive”.
As for `C[C@H]1CN([C@@H](C)CO)C(=O)CCCn2nncc2CO[C@H]1CN(C)C(=O)Nc1ccc2c(c1)OCO2`, the cytotoxicity call with HSkMC and in the test with HepG2 was “inactive” throughout. Further, the growth inhibition call with S. aureus RN4220 is “inactive”.
Regarding `C[C@H](CO)N1C[C@H](C)[C@H](CN(C)CC2CCCCC2)OCCCC[C@H](C)Oc2ccc(NC(=O)C3CCCCC3)cc2C1=O`, the cytotoxicity call in the test with HSkMC and in the test with HepG2 was “inactive” throughout. For the same compound, the growth inhibition call in the test with S. aureus RN4220 is “inactive”.
As for `COc1cc2c(cc1OC)CN(CCc1ccc(NC(=O)c3cccc4c(=O)c5cccc(OC)c5[nH]c34)cc1)CC2`, the cytotoxicity call in the test with HSkMC and in the test on HepG2 was “inactive” throughout. In addition, the growth inhibition call with S. aureus RN4220 is “inactive”.
